Laboratory results taken from PubChem BioAssay AID588855 (National Center for Advancing Translational Sciences (NCATS), 2011).
Among all 410,000 compounds or so, about 5,000 (1.2%) were called active. The inconclusive results got no clear call from the source; some entries with a clear call stand among them for comparison. Calls come from the whole dose curve; as a rule, active = well fitted inhibition curve with a large enough effect; inconclusive = small, poorly fitted or top-dose-only effect; inactive = no such curve, though single readings can be large or run the other way. A potency beside an inconclusive call is a rough fit, not a confirmed value.

Experiment: qHTS for Inhibitors of TGF-b; note: nearly all actives have a fitted effect of over 65% in size
Details: HepG2 CAGA-GFP TGF-b/SMAD3 reporter, GFP fluorescence, 18 h, TGF-beta stimulated, 500 pg/mL final; series mostly up to 46.1 µM
Method in brief: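 Read-out: total well GFP (ex488/em500-530) summed from mean per-cell fluorescence. Cells: HEPG2 CAGA-GFP, 1% FBS DMEM, 18 h at 37 degrees C with 500 pg/mL final TGF-beta. Unstimulated wells served as the full-inhibition control; stimulated DMSO wells = 0%.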
Potency is the fitted concentration of half-maximal effect; tags give direction and shape of the fitted curve.

Row | SMILES | Potency
1 | COc1ccc(CNC(=O)c2ccc3ccccc3n2)cc1OC | inconclusive: 12.6 µM [inhibitor, partial curve, poor fit]
2 | COCCCN1C(=O)N(c2ccccc2)C(=O)C1CC(=O)Nc1ccc(F)cc1 (stereo not drawn) | inactive
3 | CC(=O)Nc1ccc(S(=O)(=O)Nc2cccc(-c3ccc(N4CCC(C)CC4)nn3)c2)cc1 | inconclusive: 17.8 µM [inhibitor, single point]
4 | O=CNc1cc(-c2cccc(O)c2)cn2c(-c3ccc(F)cc3)cnc12 | inconclusive: 17.8 µM [inhibitor, single point]
5 | CC(=O)c1ccc(NC(=O)Nc2ccc(Cl)cc2)cc1 | inconclusive: 35.5 µM [inhibitor, single point]
6 | Oc1ccc(/C=N\Nc2nncc(-c3ccccc3)n2)cc1 | inconclusive: 20 µM [inhibitor, single point]
7 | C(=C\c1ccccc1)/C=N/Nc1nc2ccccc2[nH]1 | inconclusive: 17.8 µM [inhibitor, partial curve, poor fit]
8 | Cc1ccc(S(=O)(=O)N2[C@@H](c3ccc(C(C)(C)C)cc3)C(C(=O)O)=CC[C@H]2c2ccc(C(C)C)cc2)cc1 | inconclusive: 35.5 µM [inhibitor, single point]
9 | COc1ccccc1-c1nnc(SCC(=O)c2c(N)n(C3CC3)c(=O)[nH]c2=O)o1 | inactive
10 | COc1ccccc1Oc1nc2c(c(=O)n(C)c(=O)n2C)n1Cc1cccc(Br)c1 | inconclusive: 22.4 µM [inhibitor, single point]
11 | CCC(CC)c1nnc(NC(=O)Cc2c[nH]c3ccccc23)s1 | inconclusive: 35.5 µM [inhibitor, single point]
12 | COc1ccc(OC)c(NC(=S)N2CCC(C(O)(c3ccccc3)c3ccccc3)CC2)c1 | inconclusive: 0.1 µM [inhibitor, full curve, poor fit]
13 | CC1CC(C)CN(S(=O)(=O)c2ccc(C(=O)OCC(=O)NCCN3C(=O)CSC3=O)cc2)C1 (stereo not drawn) | inconclusive: 3.16 µM [inhibitor, single point]
14 | O=C1C=CC(=O)N1c1ccc(O)cc1 | inconclusive: 14.1 µM [inhibitor, partial curve, poor fit]
15 | c1ccc(Nc2nc(NCc3ccco3)c3ccccc3n2)cc1 | inconclusive: 35.5 µM [inhibitor, single point]
16 | COc1cc(/C=C/C(=O)c2ccc(NS(=O)(=O)c3ccc(C)cc3)cc2)cc(OC)c1O | inconclusive: 35.5 µM [inhibitor, single point]
17 | COC(=O)CN1C(=O)Nc2ccc(Br)cc2C1c1ccccc1Cl (stereo not drawn) | inconclusive: 35.5 µM [inhibitor, single point]
18 | O=[N+]([O-])c1cc(-c2cnc3ccccc3n2)ccc1Cl | inactive
19 | Cc1ccc2nc(SCC(=O)NCc3ccc4c(c3)OCO4)nc(=O)n2c1 | inconclusive: 35.5 µM [inhibitor, single point]
20 | Cc1ccc(S(=O)(=O)Nc2ccc(NC(=O)Nc3ccc(F)cc3F)cc2)cc1 | inconclusive: 35.5 µM [inhibitor, partial curve, poor fit]
21 | COc1ccc(CN2CCN(C(=O)C3CCC(CNS(=O)(=O)c4ccc(C)cc4)CC3)CC2)c(OC)c1OC (stereo not drawn) | inconclusive: 17.8 µM [inhibitor, single point]
22 | COc1cc(C(=O)NCCC(=O)NC(C)C)cc(OC)c1OC | inactive
23 | Cc1noc(C)c1COC(=O)c1cccc(S(=O)(=O)N2CCCCCC2)c1 | inactive

Row | SMILES | Potency
24 | COc1ccc(CCn2cc3c(c2-c2ccccc2Br)c(=O)n(C)c(=O)n3C)cc1OC | inconclusive: 22.4 µM [inhibitor, partial curve, poor fit]
25 | O=C(NC(=S)N1CCN(c2nc(-c3ccccc3)cs2)CC1)c1cccnc1 | inconclusive: 12.6 µM [inhibitor, partial curve, poor fit]
26 | CCCCC(=O)c1c(O)c2ccccc2oc1=O | inactive
27 | CCN(CC)S(=O)(=O)c1cccc(NC(=O)CCNC(=O)NC23CC4CC(CC(C4)C2)C3)c1 | inconclusive: 15.8 µM [inhibitor, single point]
28 | Cc1nc2c(cnn2-c2ccccc2Cl)c(=O)n1-c1ccc(C(C)C)cc1 | inactive
29 | COc1cc(NC(=O)Cn2ncc3c(=O)oc4ccccc4c32)cc(OC)c1OC | inactive
30 | CN(C)c1nc(N/N=C\c2ccc(Cl)c([N+](=O)[O-])c2)nc(Nc2ccc(F)cc2)n1 | inconclusive: 35.5 µM [inhibitor, single point]
31 | O=C(Nc1ccc(Cl)c(Cl)c1)c1ccc2c(c1)OCO2 | inactive
32 | O=C(NNS(=O)(=O)c1cccc(Cl)c1)c1cc(-c2ccc(F)cc2)nc2ccccc12 | inactive
33 | COc1cccc(-c2nc(SCC(=O)Nc3ccc4c(c3)OCO4)c(-c3ccccc3)[nH]2)c1 | inconclusive: 35.5 µM [inhibitor, partial curve, poor fit]
34 | CCN(CC)S(=O)(=O)c1ccc(Cl)c(C(=O)Oc2cccnc2)c1 | inactive
35 | CC(C)(C)c1ccc(OCCCNCc2ccccc2)cc1 | inconclusive: 35.5 µM [inhibitor, single point]
36 | CC(C)CC(=O)NC(c1ccccc1Cl)c1c(O)ccc2ccccc12 (stereo not drawn) | inconclusive: 25.1 µM [inhibitor, single point]
37 | COC(=O)N/N=C/c1cc(N=Nc2ccccc2)ccc1O | inactive
38 | CC(C)c1ccc(NC(=O)Nc2nc(CN)cs2)cc1 | inconclusive: 35.5 µM [inhibitor, single point]
39 | COc1ccc(-n2cc(CNC3CCN(C)CC3)c(-c3cccc(F)c3)n2)cc1 | inconclusive: 22.4 µM [inhibitor, single point]
40 | CCOC(=O)C1=C(c2ccccc2)NC(N)=NC1c1ccc(OCc2ccc(C(=O)OC)cc2)cc1 (stereo not drawn) | inconclusive: 28.2 µM [inhibitor, single point]
41 | COc1ccc2c(c1)CC(N1CCN(C)CC1)c1cc(OC)ccc1S2 (stereo not drawn) | inconclusive: 25.1 µM [inhibitor, single point]
42 | O=C(CC(c1ccccc1)c1ccccc1)N1CCN(c2ccccn2)CC1 | inactive
43 | COc1ccc(C)c2sc(N(CCCN(C)C)C(=O)c3ccc4c(c3)OCCO4)nc12 | inconclusive: 31.6 µM [inhibitor, single point]
44 | COc1cccc(/C=C2/Sc3ccc(C(=O)NCCCN4CCCC4)cc3NC2=O)c1 | inconclusive: 15.8 µM [inhibitor, partial curve, poor fit]
45 | O=C(Nc1ccccc1)/C(=C/c1ccccc1)c1ccccc1 | inconclusive: 7.94 µM [inhibitor, partial curve, poor fit]
46 | COc1ccc(C)cc1NC(=O)c1ccc(S(=O)(=O)N2CCOCC2)cc1 | inactive

Row | SMILES | Potency
47 | Cc1[nH]nc2c1-c1nc3ccccc3nc1C(C)(C)C2 | inactive
48 | CCOC(=O)CSc1nc2cc(S(=O)(=O)N3CCOCC3)ccc2n1CC | inactive
49 | COc1ccc(/C=N/NC(=O)CCn2cnc(-c3ccccc3)c2-c2ccccc2)cc1 | active: 11.2 µM
50 | O=C(/C=C/c1cccc(Cl)c1)c1ccc([N+](=O)[O-])o1 | active: 3.55 µM
51 | CCCn1c(=O)c(C(=O)NNS(=O)(=O)c2ccc(C)cc2)c(O)c2ccccc21 | inconclusive: 35.5 µM [inhibitor, single point]
52 | COc1ccc(CNC(=O)Cn2ccc3cc(S(=O)(=O)N4CCCCCC4)ccc32)cc1OC | inactive
53 | Cc1cc(NC(=O)c2ccc3c(c2)C(=O)N(c2cccc(C)c2C)C3=O)no1 | inactive
54 | COC(=O)/C=C/C(=O)Nc1ccc(O)c(Cl)c1 | inconclusive: 35.5 µM [inhibitor, single point]
55 | N/C(=N\c1nc2ccccc2o1)NC(=O)c1ccc([N+](=O)[O-])cc1 | inactive
56 | CC1CCCN(S(=O)(=O)c2cc3c4c(c2)C(C)C(=O)N4CCC3)C1 (stereo not drawn) | inactive
57 | O=C(Cc1coc2cc3c(cc12)CCC3)NC1CCCCCCC1 | inconclusive: 15.8 µM [inhibitor, single point]
58 | Cc1c(CCOC(=O)CC23CC4CC(CC(C)(C4)C2)C3)sc[n+]1CC(=O)c1ccccc1 | inconclusive: 22.4 µM [inhibitor, single point]
59 | Cc1c(CCOC(=O)c2ccc(Cl)cc2Cl)sc[n+]1CC(=O)c1ccc(Br)cc1 | inconclusive: 15.8 µM [inhibitor, partial curve, poor fit]
60 | COc1ccc(NC(=O)c2c3c(nc4ccccc24)CCC3)cc1S(=O)(=O)N1CCOCC1 | inconclusive: 0.708 µM [inhibitor, partial curve, poor fit]
61 | Fc1cccc(-c2nc(-c3ccncc3)no2)c1 | inconclusive: 35.5 µM [inhibitor, single point]
62 | C=CCNc1oc(-c2ccc(-c3ccccc3)cc2)nc1C#N | active: 10 µM
63 | O=C(Nc1cc(Sc2nc3ccccc3s2)cc([N+](=O)[O-])c1)c1cccc(F)c1F | inconclusive: 35.5 µM [inhibitor, single point]
64 | COc1ccc2c(c1)C(C)=CC(C)(C)N2S(=O)(=O)c1ccc(C)cc1 | inconclusive: 6.31 µM [inhibitor, full curve, poor fit]
65 | O=C(NCc1ccccn1)c1cc(-n2cnnc2)ccc1Cl | inactive
66 | CCn1nc(C)cc1C(=O)Sc1cccc(Br)c1 | inconclusive: 25.1 µM [inhibitor, single point]
67 | OC(c1ccc(F)c(F)c1)c1nc(-c2cc(F)cc(F)c2)cs1 (stereo not drawn) | inactive
68 | Oc1cccc(C(Nc2ccccn2)c2ccc3cccnc3c2O)c1Cl (stereo not drawn) | inconclusive: 5.01 µM [inhibitor, partial curve, poor fit]
